Measurements as given in PubChem BioAssay AID651820 (National Center for Advancing Translational Sciences (NCATS), 2012).
In all, about 340,000 compounds went through this assay and about 12,000 (3.5%) were called active. The shares of active, inactive and inconclusive entries below differ from those in the screen. The call rests on the fitted dose curve; in most records, active means well fitted inhibition curve with a large enough effect; inconclusive means small, poorly fitted or top-dose-only effect, or another doubt; inactive means no such curve, though single readings can be large or run the other way. Potencies of inconclusive entries are left out as doubtful fits.

Assay: qHTS Assay for Inhibitors of Hepatitis C Virus (HCV)
Conditions: Huh7.5.1 HCVcc-Cre (HCVcc is cell-culture hepatitis C virus) infection, luciferase reporter, 44 h; activity change, negative = inhibition: at 41.8 µM (top of the series)
Procedure, shortened: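 Cells seeded at 1,000/well and cultured 4 h, then compounds added followed by HCVcc-Cre virus (~0.5 moi). After 44 h further culture, luciferase substrate was added, plates held 15 min at room temperature, and luminescence read for 15 sec.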
On the % scale 0 is the no-effect control and ±100 the full control effect; potency means the concentration at half of the fitted maximal effect; tags describe the fitted curve by direction and shape.

| Compound | activity change, negative = inhibition | Potency |
| --- | --- | --- |
| CCN(CC)S(=O)(=O)c1cccc(C(=O)NC(Cc2c[nH]c3ccccc23)c2nnc3n2CCCCC3)c1 (configuration not stated) | inactive: 9.61% |  |
| Cc1ccc(NCc2nnc(SCC(=O)NCc3ccco3)n2CC2CCCO2)cc1Cl (configuration not stated) |  | inactive |
| Cc1c(Cl)cccc1NC(=S)NCc1cccs1 |  | inconclusive [inhibitor, single point] |
| CN(C)S(=O)(=O)c1ccc(NC(=O)CN2CCN(c3ccccn3)CC2)cc1 |  | inconclusive [inhibitor, full curve] |
| CCOC(=O)/C=C1/SCC(=O)N1CCOc1cccc(Br)c1 |  | inconclusive [inhibitor, single point] |
| COc1ccc(Cn2c(CCC(=O)O)nc3cccnc32)cc1 | inactive: 12.8% |  |
| CCN(CC)S(=O)(=O)c1ccc(C(=O)NCC2CCCCC2)cc1 | inactive: 5.4% |  |
| CC(C)(C)c1cc(CN(CCO)CCO)c(O)c(C(C)(C)C)c1 | inactive: 11.3% |  |
| COc1ccc(C(C(=O)Nc2ccc3c(c2)OCO3)N(C)C(=O)Cc2c[nH]c3ccccc23)cc1 (configuration not stated) |  | inconclusive [inhibitor, single point] |
| CCOc1ccc(C(=O)NC(=S)Nc2ccc(NC(=O)CC)cc2)cc1[N+](=O)[O-] |  | inconclusive [inhibitor, full curve, poor fit] |
| O=c1c2ccccc2oc2ccc(C#CC3(O)CCCCC3)cc12 |  | inconclusive [inhibitor, single point] |
| C=CC[C@@H](CC(=O)N[C@H](CO)Cc1ccccc1)C(=O)N[C@H](COC(=O)[C@@H](CC=C)CC(=O)OC(C)(C)C)Cc1c[nH]c2ccccc12 |  | inconclusive [inhibitor, single point] |
| CCCCOc1ccc(OC(=O)Nc2cc(Cl)ccc2OC)cc1 | inactive: -11.5% |  |
| O=C1Nc2cc(C(=O)NCCN3CCCCCC3)ccc2S/C1=C\c1ccccc1 |  | active: 14.1 µM |
| CCCN=Cc1sc2ccc(OCC)cc2c1O |  | inconclusive [inhibitor, partial curve] |
| Cc1ccc(C)c(CN2CCC(n3nnc4cc(F)ccc43)CC2)c1 | inactive: -7.75% |  |
| CCOC(=O)c1c(NC(=S)N2CCOCC2)sc2c1CCN(C(=O)OCC)C2 | inactive: -50.6% |  |
| COc1cc2c(cc1NC(=O)C(Cl)Cl)-c1ccc(NC(=O)C(Cl)Cl)cc1C2 |  | inconclusive [inhibitor, full curve] |
| Cc1cccc(C)c1NC(=O)NNC(=O)c1cc(C(C)(C)C)nn1Cc1ccccc1 | inactive: 5.08% |  |
| CCCCn1nc2cc(C(=O)NCc3ccccc3OC)ccc2c1OCC |  | active: 3.55 µM |
| CCOc1nc(N=C(N)N)nc2c(C)cccc12 |  | inconclusive [inhibitor, full curve] |
| O=c1[nH]c2ccccc2c2nc(-c3cccc(S(=O)(=O)N4CCCC4)c3)nn12 |  | inconclusive [inhibitor, partial curve] |
| COc1ccc(N2CCN(C(=O)C3CCC(Cn4c(=S)[nH]c5ccccc5c4=O)CC3)CC2)cc1 (configuration not stated) |  | active: 1 µM |
| Cc1cc(NC(=O)C(C)SCC(=O)Nc2ccc(Br)cc2Br)no1 (configuration not stated) |  | inconclusive [inhibitor, single point] |

| Compound | activity change, negative = inhibition | Potency |
| --- | --- | --- |
| Cn1nc(C(=O)OCC(=O)Nc2ccc3ccccc3c2)c2ccccc2c1=O | inactive: 12% |  |
| C[C@@H]1COC(=O)[C@H](NC(=O)OCC2c3ccccc3-c3ccccc32)C/C=C\C[C@@H](CC(=O)N[C@@H](CO)Cc2ccccc2)C(=O)N1 |  | inconclusive [inhibitor, full curve, poor fit] |
| CSc1nc(C)cc(OCC(=O)N/N=C/c2ccccc2O)n1 |  | active: 6.31 µM |
| Cc1cc(C)nc(NC(=O)Cc2ccc([N+](=O)[O-])cc2)c1 | inactive: -13.2% |  |
| CCc1ccc(CCC(=O)Nc2ccc(C(C)=O)cc2)o1 |  | inconclusive [inhibitor, single point] |
| COc1ccccc1NC(=O)Cc1noc(CSc2nnc(C(F)(F)F)n2C)n1 |  | inconclusive [inhibitor, full curve] |
| Cc1onc(-c2ccccc2Cl)c1C(=O)NCc1cccnc1 |  | inconclusive [inhibitor, single point] |
| COC(=O)c1cn(-c2ccccc2)nc1-c1cccnc1 |  | inconclusive [inhibitor, single point] |
| O=C(NCCC1CCCCN1S(=O)(=O)c1ccc(F)cc1)C(=O)Nc1ccccc1F (configuration not stated) |  | inconclusive [inhibitor, single point] |
| CCCN1CCN(C(=O)c2ccc3nc(CC)c(CC)nc3c2)CC1 | inactive: 0.483% |  |
| O=C(CNC(=O)c1ccncc1)N/N=C/c1cccc([N+](=O)[O-])c1 | inactive: 13.3% |  |
| CCOc1ccc(CNCCN2CCCC2)cc1 |  | inconclusive [inhibitor, partial curve, poor fit] |
| Cc1cccc(NC(=O)CSc2ccc(-c3ccccn3)nn2)c1C | inactive: -9.65% |  |
| Cc1cc(C)cc(N=c2c([N+](=O)[O-])nn(-c3ccc(Cl)cc3)n2O)c1 |  | inconclusive [inhibitor, full curve] |
| COc1ccc(-n2ncc(Cl)c(Cl)c2=O)cc1 |  | active: 3.55 µM |
| COc1ccccc1NCCC(=O)OCC(=O)Nc1ccccc1Cl | inactive: 11.3% |  |
| CC(C)Cn1nc(NC(=O)c2cccs2)c2cc3ccccc3nc21 |  | active: 8.91 µM |
| Cc1ccc(C)c(NC2CCCCC2NS(=O)(=O)c2ccccc2)c1 (configuration not stated) |  | inconclusive [inhibitor, single point] |
| CS(=O)(=O)c1cccc(C(=O)Nc2ccc(-c3nc4ccccc4[nH]3)cc2)c1 |  | inconclusive [inhibitor, single point] |
| CCCC(=O)c1cc2c(cc1NC(=O)c1ccccc1F)OCCO2 |  | inconclusive [inhibitor, partial curve] |
| COc1cc(C)nc(OCCNC(=O)COc2ccc(Cl)cc2Cl)n1 |  | inconclusive [inhibitor, single point] |
| CCCCn1c(SCC(=O)Nc2cc(C)on2)nnc1-c1cccs1 | inactive: -5.97% |  |
| CC(C)=CCc1c(O)cc2c(=O)c3ccc(O)cc3oc2c1O |  | inconclusive [inhibitor, single point] |
| COc1ccc([N+](=O)[O-])cc1NC(=O)COC(C)=O | inactive: -16.5% |  |

| Compound | activity change, negative = inhibition | Potency |
| --- | --- | --- |
| Cc1ccc(CCNC(=O)C(C)n2nc(C)c3c(C)n(-c4ccccc4)nc3c2=O)cc1 (configuration not stated) | inactive: -13.1% |  |
| CCN(c1ccccc1)S(=O)(=O)c1ccc(C(=O)Nc2nnc(CSC)o2)cc1 |  | inconclusive [inhibitor, single point] |
| CCn1c(SCC(=O)Nc2nc3ccc(OC)cc3s2)nnc1-c1ccoc1C |  | inconclusive [inhibitor, single point] |
| CCOC(=O)c1ccccc1NC(=O)c1cn(CC)c2nc(C)ccc2c1=O |  | inconclusive [inhibitor, single point] |
| O=C(N[C@H]1CCC(=O)N([C@H](CSc2ccc(Br)cc2)Cc2ccccc2)CC1)OCc1ccccc1 |  | inconclusive [inhibitor, single point] |
| COc1ccc(-c2cc(C(=O)Nc3sc4c(c3C#N)CCCC4)c3ccccc3n2)cc1OC |  | inconclusive [inhibitor, partial curve] |
| CCc1cccc(Nc2c3c(nc4ncnn24)CCC3)c1 |  | inconclusive [inhibitor, single point] |
| CC(=O)N(C)c1ccc(NC(=O)/C=C/c2ccccc2Cl)cc1 |  | inconclusive [inhibitor, partial curve] |
| CN(C)c1ccc(/C=N/NC(=O)CN(c2cccc(Cl)c2)S(C)(=O)=O)cc1Br |  | inconclusive [inhibitor, partial curve, poor fit] |
| Cc1ccc(-n2ccnc2SCC(=O)N(CC(C)C)C2CCS(=O)(=O)C2)c(C)c1 (configuration not stated) | inactive: 0.218% |  |
| CCc1ccccc1N1CC(C(=O)Nc2nccs2)CC1=O (configuration not stated) | inactive: 22.7% |  |
| CN(C)Cc1nc2ccccc2c(=O)n1Cc1nc(-c2cc3ccccc3o2)cs1 |  | inconclusive [inhibitor, single point] |
| Cc1cc(C(=O)Nc2sc3c(c2C#N)CCCCC3)cs1 |  | inconclusive [inhibitor, full curve] |
| CC1=C(C(=O)Nc2ccccc2)C2(CCCCC2)C(C#N)=C(SCC(N)=O)N1 | inactive: 25.7% |  |
| COc1ccc(S(=O)(=O)Nc2ccccc2N2CCOCC2)cc1OC | inactive: 5.93% |  |
| Oc1cccnc1Sc1cccc(C(F)(F)F)c1 | inactive: 23.3% |  |
| Cc1ccccc1C(=O)NC(C)C(c1cccs1)N1CCOCC1 (configuration not stated) | inactive: -0.753% |  |
| COc1ccc(C(CNC(=O)c2cccc(S(=O)(=O)Nc3ccccc3OC)c2)N2CCCCC2)cc1 (configuration not stated) |  | inconclusive [inhibitor, single point] |
| CC(C)(C)OC(=O)c1c(N)n(CCCN2CCCC2=O)c2nc3ccccc3nc12 |  | inconclusive [inhibitor, single point] |
| C=CCn1c(C)cc(C(=O)COC(=O)/C=C/c2cccc(OC)c2)c1C |  | active: 12.6 µM |
| COc1ccc(-c2cc(C(=O)N3CC(C)CC(C)C3)c3ccccc3n2)cc1OC (configuration not stated) |  | inconclusive [inhibitor, partial curve] |
| COCCNC(=S)N/N=C/c1ccc(OCc2ccc(C(=O)OC)cc2)cc1 |  | inconclusive [inhibitor, partial curve] |
| CCN(c1ccccc1)S(=O)(=O)c1ccc2c(c1)OCCO2 |  | inconclusive [inhibitor, full curve] |
| CCOc1ccccc1NC(=O)COC(=O)CNS(=O)(=O)c1ccc(C)cc1 | inactive: -1.05% |  |
